Experimental findings from patent publication US20230322822A1, “ARYL PHOSPHOROUS OXIDE COMPOUNDS AND USE THEREOF” (Chengdu Di'ao Jiuhong Pharmaceutical Factory, priority 2020, published 2023) are described below.

The target in one assay is EGFR-Del19 (Homo sapiens, UniProt P00533). The assay can be described thus: Enzymatic activity test (ADP-Glo) EGFR-Del19. It counts as biochemical. The following applies: kinase. The method, then:
(§1) • 1. […] Test information:
(§2) To assess the effect of compounds on the activity of wild-type and mutant EGFR kinases, kinase activity was tested by measuring ATP consumption in an enzymatic reaction using an ADP-Glo (Promega Corporation) kit. Samples to be tested were dissolved in DMSO and diluted in a gradient. In a microplate, an EGFR kinase, a reaction buffer (containing Tris-HCl with a pH of 7.5, MgCl2, DTT and BSA), a kinase substrate Poly(Glu4, Tyr1) and a sample (a total volume of 20 μL per well) were added per well, while a blank control (no enzyme and sample) and a negative control (no sample) were set up; incubated for 15 minutes at 23° C.; added with 5 μL of ATP, and reacted at 23° C. for 60 minutes; added with ADP-Glo Reagent, and continuously reacted for 40 minutes at room temperature to inactivate the redundant ATP; then, added with a Kinase Detection Reagent, and reacted at room temperature for 30 minutes, then the chemiluminescence intensity L of each well was measured. […] IC50 values were calculated according to the above calculation using 4Parameter Logistic Model in XLfit software. • 3.
(ADP-Glo turns the ADP formed in a reaction into a luminescent signal.)

The test system of assay [1] is PC9 cells expressing EGFR-T790M/Del19. The assay can be described thus: Cell anti-proliferation test 2 (SRB), PC9 EGFR-T790M/Del19. It counts as cell-based. Particulars: Homo sapiens, PC-9, 72 hours. The method, then:
(§3) • 1. […] Test information: • 2.1. […] Test method:
(§4) The test compounds were diluted by 5 times each time with an appropriate concentration as an initial concentration of the test, and totally diluted into 6 concentration gradients. […] SRB (Sulforhodamine B) detection method was used, and the optical density value of each well was read by a microplate reader at 490 nm wavelength.
(§5) The optical density of the cells at the drug action of 0 was set as a Tz value representing the value of the cells at the time that the drug was added. The optical density value of the cells after the solvent control DMSO acted for 72 hours was set as a C value. The optical density of the cells on which the test compounds acted for 72 hours was set as a Ti value. The response of the cells to the drug was calculated according to a method proposed by the U.S. NIH-NCI (National Institutes of Health-National Institute of Cancer): When Ti is more than or equal to Tz, the value was [(Ti−Tz)/(C−Tz)]×100; and when Ti is less than Tz, the value was [(Ti-Tz)/Tz]×100.

The test system of assay [2] is PC9 cells expressing EGFR-C797S/T790M/Del19. The assay can be described thus: Cell anti-proliferation test 2 (SRB), PC9 EGFR-C797S/T790M/Del19. Type of assay: cell-based. The following applies: Homo sapiens, PC-9, 72 hours. How it is done: as §3, §4, §5
For assay [3], the system named is Ba/F3 cells expressing EGFR-T790M/L858R. The assay can be described thus: Cell anti-proliferation test 1 (CTG), BaF3 EGFR-T790M/L858R. Particulars: Mus musculus, BaF3, 72 h, read-out: EGFR-T790M/L858R IC50.
A further assay addresses EML4-ALK kinase (Homo sapiens (Human), UniProt Q9HC35+Q9UM73). As to the kind of experiment: Enzymatic activity test 2 (ADP-Glo) EML4-ALK kinase. It counts as biochemical. The method, then: as §1
as §2, with “EML4-ALK” for “wild-type and mutant EGFR”, “EML4-ALK” for “EGFR”, “IGF1” for “Poly(Glu4, Tyr1)”, “up;” for “up; incubated for 15 minutes at 23° C.;”, “kinase detection reagent,” for “Kinase Detection Reagent,”

Assay [4] relates to Ba/F3 cells expressing EGFR-WT. The assay can be described thus: Cell anti-proliferation test 1 (CTG), BaF3 EGFR-WT. Particulars: Mus musculus, BaF3, 72 h, read-out: EGFR-WT IC50.
In assay [5] the test system is Ba/F3 cells expressing EGFR-C797S/T790M/Del19. As to the kind of experiment: Cell anti-proliferation test 1 (CTG), BaF3 EGFR-C797S/T790M/Del19. Particulars: Mus musculus, BaF3, 72 h, read-out: EGFR-C797S/T790M/Del19 IC50.
Another assay has as its target EGFR-T790M/Del19 (Homo sapiens, UniProt P00533, T790M, form not given). The assay can be described thus: Enzymatic activity test (ADP-Glo) EGFR-T790M/Del19. It counts as biochemical. Particulars: kinase. The method, then:
as §1, §2

Assay [6] deals with PC9 cells expressing EGFR-Del19. As to the kind of experiment: Cell anti-proliferation test 2 (SRB), PC9 EGFR-Del19. Type of assay: cell-based. Particulars: Homo sapiens, PC-9, 72 hours. How it is done: as §3, §4, §5
Assay [7] has as its system Ba/F3 cells expressing EGFR-C797S/T790M/L858R. The assay can be described thus: Cell anti-proliferation test 1 (CTG), BaF3 EGFR-C797S/T790M/L858R. The following applies: Mus musculus, BaF3, 72 h, read-out: EGFR-C797S/T790M/L858R IC50.
A further assay concerns the target EGFR-C797S/T790M/L858R (Homo sapiens (Human), UniProt P00533, C797S/L858R/T790M). The assay can be described thus: Enzymatic activity test (ADP-Glo) EGFR-C797S/T790M/L858R. It counts as biochemical. Particulars: kinase. The method, then: as §1, §2
The subject of a further assay is Ba/F3-EML-4-ALK-WT. The assay can be described thus: Cell anti-proliferation test 3 (CTG), Ba/F3-EML-4-ALK-WT. It counts as cell-based. The following applies: Mus musculus, 72 h, BaF3 cells, Day 3.
The next assay has as its target EGFR-T790M/L858R (Homo sapiens (Human), UniProt P00533, L858R/T790M). As to the kind of experiment: Enzymatic activity test (ADP-Glo) EGFR-T790M/L858R. It counts as biochemical. The following applies: kinase. How it is done:
as §1, §2

The next assay addresses EGFR-WT (Homo sapiens (Human), UniProt P00533). As to the kind of experiment: Enzymatic activity test (ADP-Glo) EGFR-WT. Type of assay: biochemical. Particulars: kinase. The method, then:
as §1, §2

For a further assay, the system named is Ba/F3-EML-4-ALK-L1196M. The assay can be described thus: Cell anti-proliferation test 3 (CTG), Ba/F3-EML-4-ALK-L1196M. It counts as cell-based. The following applies: Ba/F3 EML4-ALK-L1196M, 72 h, BaF3 cells, Day 3.
The test system of assay [8] is Ba/F3 cells expressing EGFR-T790M/Del19. As to the kind of experiment: Cell anti-proliferation test 1 (CTG), BaF3 EGFR-T790M/Del19. The following applies: Mus musculus, BaF3, 72 h, read-out: EGFR-T790M/Del19 IC50.

Some results are limits rather than exact numbers.

Sequence of EGFR-T790M/L858R (P00533 25-1210 T790M/L858R): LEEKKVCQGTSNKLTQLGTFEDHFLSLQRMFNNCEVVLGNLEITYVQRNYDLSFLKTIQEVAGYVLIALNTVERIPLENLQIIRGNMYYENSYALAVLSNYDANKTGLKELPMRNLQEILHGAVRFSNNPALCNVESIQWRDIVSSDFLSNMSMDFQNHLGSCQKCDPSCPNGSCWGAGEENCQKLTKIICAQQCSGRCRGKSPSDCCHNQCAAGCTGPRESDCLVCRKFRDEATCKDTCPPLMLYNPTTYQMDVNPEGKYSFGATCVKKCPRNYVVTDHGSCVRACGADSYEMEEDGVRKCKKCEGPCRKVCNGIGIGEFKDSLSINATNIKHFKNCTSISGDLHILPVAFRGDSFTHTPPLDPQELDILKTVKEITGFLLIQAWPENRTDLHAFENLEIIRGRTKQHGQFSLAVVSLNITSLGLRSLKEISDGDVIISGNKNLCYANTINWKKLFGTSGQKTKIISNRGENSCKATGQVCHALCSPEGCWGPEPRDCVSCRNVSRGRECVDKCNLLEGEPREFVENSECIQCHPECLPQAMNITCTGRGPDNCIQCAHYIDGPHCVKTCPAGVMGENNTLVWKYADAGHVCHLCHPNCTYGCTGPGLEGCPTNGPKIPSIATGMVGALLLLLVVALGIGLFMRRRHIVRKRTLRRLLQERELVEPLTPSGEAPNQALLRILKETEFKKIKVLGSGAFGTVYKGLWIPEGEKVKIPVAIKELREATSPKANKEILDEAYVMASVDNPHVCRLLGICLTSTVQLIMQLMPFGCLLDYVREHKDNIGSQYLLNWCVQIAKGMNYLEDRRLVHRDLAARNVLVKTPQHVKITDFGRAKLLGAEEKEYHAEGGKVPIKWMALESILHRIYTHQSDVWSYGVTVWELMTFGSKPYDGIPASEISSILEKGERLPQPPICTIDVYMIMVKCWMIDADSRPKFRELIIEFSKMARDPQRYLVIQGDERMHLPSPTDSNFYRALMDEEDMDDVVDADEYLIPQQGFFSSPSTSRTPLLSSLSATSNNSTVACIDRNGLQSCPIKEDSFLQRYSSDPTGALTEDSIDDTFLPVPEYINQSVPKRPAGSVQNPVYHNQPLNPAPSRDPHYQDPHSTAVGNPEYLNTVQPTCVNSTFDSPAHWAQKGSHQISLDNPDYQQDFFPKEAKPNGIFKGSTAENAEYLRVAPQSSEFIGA
Sequence of EGFR-C797S/T790M/L858R (P00533 25-1210 T790M/C797S/L858R): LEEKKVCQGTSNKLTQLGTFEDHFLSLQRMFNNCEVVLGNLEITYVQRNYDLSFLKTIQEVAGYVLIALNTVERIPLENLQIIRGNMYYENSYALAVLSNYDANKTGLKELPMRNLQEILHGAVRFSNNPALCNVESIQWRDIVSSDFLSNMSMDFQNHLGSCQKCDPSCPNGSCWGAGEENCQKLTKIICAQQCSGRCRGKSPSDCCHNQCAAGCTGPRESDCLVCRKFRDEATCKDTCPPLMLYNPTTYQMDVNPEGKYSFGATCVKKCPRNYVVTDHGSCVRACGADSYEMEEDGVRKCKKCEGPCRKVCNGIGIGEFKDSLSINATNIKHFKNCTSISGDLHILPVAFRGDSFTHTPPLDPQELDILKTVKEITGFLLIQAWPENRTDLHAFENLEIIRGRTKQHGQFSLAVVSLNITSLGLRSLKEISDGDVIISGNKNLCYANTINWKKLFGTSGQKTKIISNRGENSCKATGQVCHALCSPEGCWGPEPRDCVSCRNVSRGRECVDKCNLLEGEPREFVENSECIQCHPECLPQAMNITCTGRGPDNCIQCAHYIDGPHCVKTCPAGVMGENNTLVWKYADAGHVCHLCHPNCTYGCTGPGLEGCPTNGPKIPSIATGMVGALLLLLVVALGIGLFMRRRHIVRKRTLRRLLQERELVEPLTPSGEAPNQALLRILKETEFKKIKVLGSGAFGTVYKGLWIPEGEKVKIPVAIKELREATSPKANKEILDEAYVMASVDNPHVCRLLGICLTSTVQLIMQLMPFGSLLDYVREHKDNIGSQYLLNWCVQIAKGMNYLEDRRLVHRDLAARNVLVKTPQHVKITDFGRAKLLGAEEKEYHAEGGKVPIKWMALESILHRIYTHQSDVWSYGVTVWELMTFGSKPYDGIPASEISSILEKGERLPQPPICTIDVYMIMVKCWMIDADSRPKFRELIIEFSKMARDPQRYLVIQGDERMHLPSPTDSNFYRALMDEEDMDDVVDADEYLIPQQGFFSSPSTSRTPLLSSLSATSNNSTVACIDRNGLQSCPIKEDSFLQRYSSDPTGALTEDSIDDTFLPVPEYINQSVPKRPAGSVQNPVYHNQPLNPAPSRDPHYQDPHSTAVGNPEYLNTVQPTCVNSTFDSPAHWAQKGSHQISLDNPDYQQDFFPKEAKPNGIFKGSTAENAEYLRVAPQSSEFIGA
Sequence of EGFR-WT (P00533 25-1210): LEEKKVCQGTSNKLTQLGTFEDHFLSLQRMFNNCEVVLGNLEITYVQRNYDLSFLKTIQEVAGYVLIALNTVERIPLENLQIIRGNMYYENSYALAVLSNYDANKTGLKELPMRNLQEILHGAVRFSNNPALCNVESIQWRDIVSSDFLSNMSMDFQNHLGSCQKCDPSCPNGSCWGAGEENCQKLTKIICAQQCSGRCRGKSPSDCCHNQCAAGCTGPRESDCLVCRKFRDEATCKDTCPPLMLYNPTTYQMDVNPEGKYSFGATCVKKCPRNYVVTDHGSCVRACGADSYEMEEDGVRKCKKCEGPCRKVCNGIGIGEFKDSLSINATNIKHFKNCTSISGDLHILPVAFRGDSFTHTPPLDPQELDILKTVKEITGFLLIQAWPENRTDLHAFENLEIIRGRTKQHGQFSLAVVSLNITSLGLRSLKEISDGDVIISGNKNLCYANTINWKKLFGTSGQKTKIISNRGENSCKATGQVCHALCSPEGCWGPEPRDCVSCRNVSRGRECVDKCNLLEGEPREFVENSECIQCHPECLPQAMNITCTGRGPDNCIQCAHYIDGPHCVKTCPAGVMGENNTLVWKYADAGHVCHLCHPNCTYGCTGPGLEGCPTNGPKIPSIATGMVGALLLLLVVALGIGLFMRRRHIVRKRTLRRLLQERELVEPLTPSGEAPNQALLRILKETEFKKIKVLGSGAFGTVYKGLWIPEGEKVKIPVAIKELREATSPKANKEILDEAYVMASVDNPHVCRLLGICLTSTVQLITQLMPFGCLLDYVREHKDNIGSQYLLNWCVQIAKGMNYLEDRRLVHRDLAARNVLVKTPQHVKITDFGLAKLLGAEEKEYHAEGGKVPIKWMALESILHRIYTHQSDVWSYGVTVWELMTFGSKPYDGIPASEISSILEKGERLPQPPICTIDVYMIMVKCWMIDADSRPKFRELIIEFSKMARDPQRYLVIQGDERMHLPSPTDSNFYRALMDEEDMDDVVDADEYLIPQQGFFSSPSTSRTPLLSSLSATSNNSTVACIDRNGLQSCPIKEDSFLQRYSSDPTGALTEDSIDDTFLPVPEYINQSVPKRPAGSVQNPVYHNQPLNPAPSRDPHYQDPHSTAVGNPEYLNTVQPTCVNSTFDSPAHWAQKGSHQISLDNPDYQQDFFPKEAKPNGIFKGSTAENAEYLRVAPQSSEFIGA
Sequence of EGFR-Del19 (P00533 25-1210 limits assumed): as the sequence (P00533 25-1210) above

In the case of `COc1cc(N2CCC(N3CCN(C)CC3)CC2)c(C)cc1Nc1ncc(Cl)c(Nc2cccc(C)c2P(C)(C)=O)n1` [Control compound 1, reference compound], the IC50 is > 250 nM at EGFR-Del19; 156 nM in [3]; > 250 nM against EML4-ALK kinase; 1600 nM in assay [4]; 180 nM in [5]; > 250 nM at EGFR-T790M/Del19. The IC50 in [7] was 626 nM; against EGFR-C797S/T790M/L858R, > 250 nM; in the assay with Ba/F3-EML-4-ALK-WT it was 34.1 nM; at EGFR-T790M/L858R, > 250 nM; against EGFR-WT, > 250 nM; in the assay with Ba/F3-EML-4-ALK-L1196M, 65 nM. Also, the IC50 in assay [8] worked out at 166 nM. Also, the GI50 (commonly the concentration giving 50% growth inhibition) in assay [1] amounted to 267 nM; in assay [2], 337 nM; in assay [6], 266 nM.
